# Laboratory results taken from PubChem BioAssay AID588855 (National Center for Advancing Translational Sciences (NCATS), 2011).
# Screen size: about 410,000 compounds; about 5,000 (1.2%) were called active. The shares of active, inactive and inconclusive entries below differ from those in the screen. Calls come from the whole dose curve; as a rule, active = well fitted inhibition curve with a large enough effect; inconclusive = small, poorly fitted or top-dose-only effect; inactive = no such curve, though single readings can be large or run the other way. Where the call is inconclusive, the potency comes from a doubtful curve fit.
# Assay: qHTS for Inhibitors of TGF-b; note: nearly all actives have a fitted effect of over 65% in size
# Details: HepG2 CAGA-GFP TGF-b/SMAD3 reporter, GFP fluorescence, 18 h, TGF-beta stimulated, 500 pg/mL final; series mostly up to 46.1 µM; activity, negative = inhibition: at the top concentration
# Method in brief: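 Smad-responsive CAGA-GFP expression was quantified in HEPG2 cells exposed to compounds and 500 pg/mL final TGF-beta for 18 h at 37 degrees C; unstimulated wells defined full inhibition.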
# % is set by controls: 0 for no effect and ±100 for the full control effect; potency is the fitted concentration of half-maximal effect; tags give direction and shape of the fitted curve.
SMILES,"activity, negative = inhibition",Potency
COc1ccc(-c2noc(CCC(=O)Nc3cccc(C)c3C)n2)cc1OC,inactive: -20.8%,–
CCOC(=O)c1[nH]c(C)c(C(=O)NCc2ccc(OC)cc2)c1C,inactive: 0.0534%,–
CCOc1ccc(-c2cccc(NS(=O)(=O)c3cc([N+](=O)[O-])ccc3Cl)c2)nn1,–,"inconclusive: 15.8 µM [inhibitor, single point]"
CCCn1nc(-c2nnc(-c3ccc(C)c(C)c3)o2)c2ccccc2c1=O,inactive: 12.1%,–
COCCCn1[nH]c2c3c(ccc2c1=O)C(=O)c1ccccc1C3=O,–,"inconclusive: 35.5 µM [inhibitor, single point]"
O=S(=O)(Nc1ccc(C(O)(C(F)(F)F)C(F)(F)F)cc1)c1cccc2ccccc12,–,"inconclusive: 14.1 µM [inhibitor, single point]"
Clc1nc(CN2CCOCC2)nc2sc3c(c12)CCC3,inactive: 14.9%,–
CC(C)OCCCNC(=O)Cc1ccc(NC(=O)N2CCCCc3ccccc32)cc1,inactive: -1.42%,–
CC(C)C[C@H]1CN([C@@H](Cc2ccc(O)cc2)CN2CCC[C@@H]2CN2C(=S)NC[C@@H]2Cc2ccccc2)C(=S)N1CC1CCCCCC1,–,active: 10 µM
COc1ccc(NC(=O)CCN2CCN(S(=O)(=O)c3ccc(Br)cc3)CC2)cc1,–,"inconclusive: 35.5 µM [inhibitor, single point]"
CN(C)c1cccc(C(=O)N(C)C2CCCN(Cc3ccccc3F)C2)c1 (centres undefined),inactive: 17.2%,–
Cc1cc(C)cc(CC(=O)N2CCC2(C)C(=O)NS(=O)(=O)c2ccccc2Cl)c1 (centres undefined),–,"inconclusive: 2.82 µM [inhibitor, single point]"
COc1ccccc1CC(=O)Nc1ccc(S(=O)(=O)N(C)C2CCN(C)CC2)cc1,inactive: 5.14%,–
O=C(NC(=S)N(Cc1ccccc1)Cc1ccccc1)c1ccccc1F,–,"inconclusive: 10 µM [inhibitor, partial curve, poor fit]"
CCOC(=O)c1sc(N(Cc2ccccc2)C(=O)CN2C(=O)CN(C)C2=O)nc1C,–,"inconclusive: 35.5 µM [inhibitor, single point]"
CCOc1ccccc1N(C)C(=O)c1cc2c(s1)-c1ccccc1OC2,–,"inconclusive: 31.6 µM [inhibitor, single point]"
CCn1c(=O)n(-c2ccc3c(c2)OCO3)c2nc(-c3cccc(OC)c3OC)nc(C(N)=O)c21,–,"inconclusive: 0.1 µM [inhibitor, full curve, poor fit]"
Cc1ccccc1C(=O)Nc1cc2c(cc1N1CCCCC1)n(C)c(=O)n2C,–,"inconclusive: 35.5 µM [inhibitor, single point]"
COc1ccc(N2CCN(C(=O)c3ccc4c(c3)N(Cc3cccc(Cl)c3)C(=O)c3ccccc3S4(=O)=O)CC2)cc1,–,"inconclusive: 2.51 µM [inhibitor, full curve, poor fit]"
